The numbers were not newly measured in article PMC6222691, “Isoxazolidine Conjugates of N3-Substituted 6-Bromoquinazolinones—Synthesis, Anti-Varizella-Zoster Virus, and Anti-Cytomegalovirus Activity” (Molecules : A Journal of Synthetic Chemistry and Natural …, 2018), which cites them from elsewhere.

The conditions of this data set: VEEV study; cited from earlier work.

Take `CN1CCN(Cc2nc3ccc([N+](=O)[O-])cc3c(=O)n2-c2ccccc2F)CC1` [compound 7]: the CC50 is 50 µM.
In the case of `CCN1CCN(Cc2nc3ccc([N+](=O)[O-])cc3c(=O)n2-c2ccccc2F)CC1` [compound 8], the CC50 was 50 µM.
